Experimental data published in the supplement of paper PMC11369174, “Proteome-scale characterisation of motif-based interactome rewiring by disease mutations” (Molecular Systems Biology, 2024).
Some of the results follow. Single values of this set are uncertain.

Experiments:
Assay in all cases: mutation enrichment score (mutant vs wild-type peptide binding to bait); baits are purified protein domains named by gene / domain / UniProt id / residues; peptides come from disordered regions of human proteins; higher = mutation enhances binding relative to wild type
[1] = target: KPNA4_Arm__O00629_68_487; conditions: wild-type window: …
[2] = target: T1, SIN3A_PAH__Q96ST3_295_383; conditions: number of wild-type / mutant comparisons summed (bounds the score): 5; paper call: no_effect; wild-type window: …
T1 chain: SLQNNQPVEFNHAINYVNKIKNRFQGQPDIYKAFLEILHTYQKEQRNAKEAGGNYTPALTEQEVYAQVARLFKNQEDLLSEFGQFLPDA

[3] = target: OXSR1___O95747_434_527; conditions: number of wild-type / mutant comparisons summed (bounds the score): 6; paper call: no_effect; wild-type window: …
[4] = target: Keap1_KELCH__Q14145_321_609; conditions: number of wild-type / mutant comparisons summed (bounds the score): 6, wild-type window: …
[5] = target: KPNB1_Heat_1_Q14974_127_876; conditions: number of wild-type / mutant comparisons summed (bounds the score): 2; paper call: no_effect; wild-type window: …
[6] = number of wild-type / mutant comparisons summed (bounds the score): 9, paper call: no_effect
[7] = number of wild-type / mutant comparisons summed (bounds the score): 9, paper call: diminished
[8] = number of wild-type / mutant comparisons summed (bounds the score): 18, paper call: no_effect

Sequence of KPNA4_Arm__O00629_68_487 (chain, as listed by the source): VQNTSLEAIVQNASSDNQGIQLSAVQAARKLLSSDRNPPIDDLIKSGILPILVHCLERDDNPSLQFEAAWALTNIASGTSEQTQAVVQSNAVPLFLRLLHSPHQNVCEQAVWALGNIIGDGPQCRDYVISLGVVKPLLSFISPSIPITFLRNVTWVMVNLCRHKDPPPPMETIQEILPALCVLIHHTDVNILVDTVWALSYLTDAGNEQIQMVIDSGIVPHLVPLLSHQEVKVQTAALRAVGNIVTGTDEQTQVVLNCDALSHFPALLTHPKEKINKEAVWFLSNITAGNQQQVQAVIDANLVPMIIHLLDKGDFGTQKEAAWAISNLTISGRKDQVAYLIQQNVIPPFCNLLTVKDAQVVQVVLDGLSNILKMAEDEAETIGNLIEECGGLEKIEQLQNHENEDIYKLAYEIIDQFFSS
Sequence of Keap1_KELCH__Q14145_321_609 (chain, as listed by the source): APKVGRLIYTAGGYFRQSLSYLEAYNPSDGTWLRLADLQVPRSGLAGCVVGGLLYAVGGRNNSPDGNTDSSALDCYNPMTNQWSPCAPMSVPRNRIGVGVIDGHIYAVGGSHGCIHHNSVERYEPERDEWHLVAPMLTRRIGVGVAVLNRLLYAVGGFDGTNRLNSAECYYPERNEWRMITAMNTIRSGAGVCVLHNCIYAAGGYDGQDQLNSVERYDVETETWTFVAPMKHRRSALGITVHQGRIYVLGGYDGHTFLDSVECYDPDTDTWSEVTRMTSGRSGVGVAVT
Sequence of KPNB1_Heat_1_Q14974_127_876 (chain, as listed by the source): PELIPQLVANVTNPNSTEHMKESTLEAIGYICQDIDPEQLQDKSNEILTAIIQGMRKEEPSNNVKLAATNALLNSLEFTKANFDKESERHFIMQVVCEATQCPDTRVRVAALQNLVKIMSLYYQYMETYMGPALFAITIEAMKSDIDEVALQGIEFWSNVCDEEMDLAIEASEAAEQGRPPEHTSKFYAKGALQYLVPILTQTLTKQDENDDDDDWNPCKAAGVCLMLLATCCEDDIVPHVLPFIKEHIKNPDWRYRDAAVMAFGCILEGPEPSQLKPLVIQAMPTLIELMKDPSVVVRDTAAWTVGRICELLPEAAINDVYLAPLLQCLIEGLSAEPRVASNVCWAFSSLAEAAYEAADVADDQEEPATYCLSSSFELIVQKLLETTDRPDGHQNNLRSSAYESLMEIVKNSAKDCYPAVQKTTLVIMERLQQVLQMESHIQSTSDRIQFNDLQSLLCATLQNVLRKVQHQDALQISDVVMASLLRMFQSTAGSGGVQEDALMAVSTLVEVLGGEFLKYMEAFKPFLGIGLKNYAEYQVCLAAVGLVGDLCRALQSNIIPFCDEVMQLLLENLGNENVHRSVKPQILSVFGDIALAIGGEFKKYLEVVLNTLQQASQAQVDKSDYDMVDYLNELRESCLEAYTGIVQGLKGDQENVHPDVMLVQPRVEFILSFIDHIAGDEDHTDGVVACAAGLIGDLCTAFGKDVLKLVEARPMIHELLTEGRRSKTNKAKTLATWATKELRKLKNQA

B1: G7E G7E (peptide)
chain: MVAGMLGLREEKSEDQDLQGEKDKPLK
Q: How did the mutation enrichment score [1, 6] turn out when B1 was run?
A: The mutation enrichment score was 2.

B2: P67S P67S (peptide)
chain: VPPSPTFSEPGMVGATEGTRSGLEELYWLATLQQQLGAGEA
Q: Which mutation enrichment score [1, 6] does the source give for B2 here?
A: The mutation enrichment score was 2.

Q: What about the mutation enrichment score [2] of the same binder?
A: Its mutation enrichment score is -3.7.

B3: R941H R941H (peptide)
chain: EMNERLEDEEEMNAELTAKKHKLEDECSELKRDIDDLELTL
Q: Which mutation enrichment score [1, 6] does the source give for B3 here?
A: Its mutation enrichment score is -4.

B4: R941P R941P (peptide)
chain: EMNERLEDEEEMNAELTAKKPKLEDECSELKRDIDDLELTL
Q: B4 was tested. Which mutation enrichment score [1, 6] did it give?
A: Its mutation enrichment score is -4.

B5: E53G E53G (peptide)
chain: EDLQELNDRLAVYIDRVRSLGTENAGLRLRITESEEVVSRE
Q: How did the mutation enrichment score [1, 6] turn out when B5 was run?
A: The mutation enrichment score was 5.

B6: R377Q R377Q (peptide)
chain: NALKGRVPPGDSPPGNGSGPQHINDSPFGTLPGSAEPPLTA
Q: How did the mutation enrichment score [1, 6] turn out when B6 was run?
A: Its mutation enrichment score is 0.

B7: L54V L54V (peptide)
chain: EEFLIKPESKVAKLDTSQWPVLLKNFDKLNVRTTHYTPLAC
Q: With B7 as the binder, how does the mutation enrichment score [1, 6] read?
A: Its mutation enrichment score is 2.1.

B8: D179A D179A (peptide)
chain: ESSLILKASEQGDSMLGDLLASDCTTGSGSGLPFLVQRTVA
Q: For B8, which mutation enrichment score [1, 6] is on record?
A: The mutation enrichment score was 2.

Q: And the mutation enrichment score [3]?
A: Its mutation enrichment score is 2.

B9: R51Q R51Q (peptide)
chain: HIRYNPLQDEWVLVSAHRMKQPWQGQVEPQLLKTVPRHDPL
Q: For B9, which mutation enrichment score [1, 7] is on record?
A: Its mutation enrichment score is -6.

B10: Q72E Q72E (peptide)
chain: RKRVAGDLPYGWEQETDENGEVFFVDHINKRTTYLDPRLAF
Q: How did the mutation enrichment score ([4]; paper call: enhanced) turn out when B10 was run?
A: The mutation enrichment score was 6.

B11: L489V L489V (peptide)
chain: DEENQEMSSCKSARIETSCSVLEQTQPATPSLWKNKEQHLS
Q: With B11 as the binder, how does the mutation enrichment score [1, 6] read?
A: The mutation enrichment score was 1.9.

B12: V1038M V1038M (peptide)
chain: QATENKVKNLTEEMAALDESMARLTKEKKALQEAHQQALGD
Q: How did the mutation enrichment score [1, 6] turn out when B12 was run?
A: Its mutation enrichment score is -4.

B13: L13Q L13Q (peptide)
chain: MPPAAPARLALALGLGLWLGQLAGGPGRGCGPC
Q: For B13, which mutation enrichment score [1, 6] is on record?
A: The mutation enrichment score was 2.

B14: K43E K43E (peptide)
chain: PEEDVAEIQHAEEFLIKPESEVAKLDTSQWPLLLKNFDKLN
Q: For B14, which mutation enrichment score [1, 6] is on record?
A: The mutation enrichment score was -4.

B15: R291G R291G (peptide)
chain: QWASTRGGHKERPTVMLFPFGNLGSPTQVISKPESKEEHAI
Q: With B15 as the binder, how does the mutation enrichment score [1, 6] read?
A: Its mutation enrichment score is 2.

B16: E121K E121K (peptide)
chain: LGSTFVAYLPDYRMKEWSRRKAERLVKYREANGLPIMESNC
Q: B16 was tested. Which mutation enrichment score [1, 6] did it give?
A: The mutation enrichment score was -5.

B17: E930K E930K (peptide)
chain: KNKIQLEAKVKEMNERLEDEKEMNAELTAKKRKLEDECSEL
Q: How did the mutation enrichment score [1, 6] turn out when B17 was run?
A: The mutation enrichment score was -4.

B18: E930Q E930Q (peptide)
chain: KNKIQLEAKVKEMNERLEDEQEMNAELTAKKRKLEDECSEL
Q: How did the mutation enrichment score [1, 6] turn out when B18 was run?
A: The mutation enrichment score was -3.3.

B19: L647V L647V (peptide)
chain: PYPEDYGDIEIGSHRSSSSNVGADDGYMPMTPGAALAGSGS
Q: Which mutation enrichment score ([4]; paper call: no_effect) does the source give for B19 here?
A: The mutation enrichment score was 4.2.

B20: A1155V A1155V (peptide)
chain: SGSAMNVVFSEDEMKKFLEEVTRVSQEHPVVLTKFVEGARE
Q: With B20 as the binder, how does the mutation enrichment score [1, 6] read?
A: Its mutation enrichment score is 2.

B21: P40R P40R (peptide)
chain: KSLPEEDVAEIQHAEEFLIKRESKVAKLDTSQWPLLLKNFD
Q: Which mutation enrichment score [1, 8] does the source give for B21 here?
A: The mutation enrichment score was -3.

B22: P189L P189L (peptide)
chain: APSFQGTESPKPCKMPKIVDLLARGRAFRHPEEMDRPHAPH
Q: B22 was tested. Which mutation enrichment score [1, 6] did it give?
A: The mutation enrichment score was 4.

B23: G1046R G1046R (peptide)
chain: KSQPVSKPESRASTSTSVSGRRNTGARTLADIKARAQQARA
Q: Which mutation enrichment score [1, 8] does the source give for B23 here?
A: The mutation enrichment score was 0.

B24: T49M T49M (peptide)
chain: EIQHAEEFLIKPESKVAKLDMSQWPLLLKNFDKLNVRTTHY
Q: Which mutation enrichment score [1, 6] does the source give for B24 here?
A: Its mutation enrichment score is 1.8.

B25: G159A G159A (peptide)
chain: GNIMRVIGEDGQSVYKLTDFAAARELEDDEQFVSLYGTEEY
Q: B25 was tested. Which mutation enrichment score [5] did it give?
A: The mutation enrichment score was 1.

B26: P720R P720R (peptide)
chain: PQIPAERDREPSKLKRSYSSRDITQAIQEEEKRKPTVTPTV
Q: For B26, which mutation enrichment score [1, 6] is on record?
A: The mutation enrichment score was 2.

B27: D19Y D19Y (peptide)
chain: MAETVWSTDTGEAVYRSRDPYRNLRLRVHLQRITSSNFL
Q: How did the mutation enrichment score ([4]; paper call: no_effect) turn out when B27 was run?
A: Its mutation enrichment score is -3.

B28: W53R W53R (peptide)
chain: RYNPLQDEWVLVSAHRMKRPRQGQVEPQLLKTVPRHDPLNP
Q: How did the mutation enrichment score [1, 7] turn out when B28 was run?
A: Its mutation enrichment score is -6.

B29: G55C G55C (peptide)
chain: NPLQDEWVLVSAHRMKRPWQCQVEPQLLKTVPRHDPLNPLC
Q: B29 was tested. Which mutation enrichment score [1, 6] did it give?
A: The mutation enrichment score was -1.8.

B30: T22M T22M (peptide)
chain: RLRVRLLKRTWPLEVPETEPMLGHLRSHLRQSLLCTWGYSS
Q: B30 was tested. Which mutation enrichment score [1, 6] did it give?
A: Its mutation enrichment score is 3.1.

B31: E931G E931G (peptide)
chain: NKIQLEAKVKEMNERLEDEEGMNAELTAKKRKLEDECSELK
Q: For B31, which mutation enrichment score [1, 6] is on record?
A: Its mutation enrichment score is -4.

B32: E931K E931K (peptide)
chain: NKIQLEAKVKEMNERLEDEEKMNAELTAKKRKLEDECSELK
Q: With B32 as the binder, how does the mutation enrichment score [1, 6] read?
A: The mutation enrichment score was -3.5.

B33: R361Q R361Q (peptide)
chain: PQIIKHKALDLDDRWQFKRSQLLDTQDKRSKADTGSSNQDK
Q: Which mutation enrichment score [1, 7] does the source give for B33 here?
A: The mutation enrichment score was -6.

B34: E935K E935K (peptide)
chain: LEAKVKEMNERLEDEEEMNAKLTAKKRKLEDECSELKRDID
Q: With B34 as the binder, how does the mutation enrichment score [1, 6] read?
A: Its mutation enrichment score is -4.

B35: E935V E935V (peptide)
chain: LEAKVKEMNERLEDEEEMNAVLTAKKRKLEDECSELKRDID
Q: With B35 as the binder, how does the mutation enrichment score [1, 6] read?
A: Its mutation enrichment score is -4.

B36: R2149C R2149C (peptide)
chain: AQLYQHQLNPTLLQQQNKRPCTRITDDQLRVLRQYFDINNS
Q: How did the mutation enrichment score [1, 6] turn out when B36 was run?
A: The mutation enrichment score was -1.

B37: R2149H R2149H (peptide)
chain: AQLYQHQLNPTLLQQQNKRPHTRITDDQLRVLRQYFDINNS
Q: For B37, which mutation enrichment score [1, 8] is on record?
A: The mutation enrichment score was -1.

B38: K13E K13E (peptide)
chain: MAENLLDGPPNPKRAKLSSPEFSANDSTDFGSL
Q: How did the mutation enrichment score [1, 7] turn out when B38 was run?
A: The mutation enrichment score was -6.

B39: I186T I186T (peptide)
chain: SQEAPSFQGTESPKPCKMPKTVDPLARGRAFRHPEEMDRPH
Q: With B39 as the binder, how does the mutation enrichment score ([1]; number of wild-type / mutant comparisons summed (bounds the score): 18, paper call: diminished) read?
A: Its mutation enrichment score is -5.

B40: R500G R500G (peptide)
chain: LRKFDELDAVMSRLPHHSESGQEHERISRIHEEFKKKKNDP
Q: With B40 as the binder, how does the mutation enrichment score [1, 6] read?
A: Its mutation enrichment score is -0.33.

B41: E41K E41K (peptide)
chain: SLPEEDVAEIQHAEEFLIKPKSKVAKLDTSQWPLLLKNFDK
Q: Which mutation enrichment score [1, 6] does the source give for B41 here?
A: Its mutation enrichment score is -4.

B42: S50Y S50Y (peptide)
chain: IQHAEEFLIKPESKVAKLDTYQWPLLLKNFDKLNVRTTHYT
Q: Which mutation enrichment score [1, 6] does the source give for B42 here?
A: The mutation enrichment score was -3.9.

B43: A265T A265T (peptide)
chain: LASFLVYLAEKGENDHFDTYTDALWWGLITLTTIGYGDKYP
Q: How did the mutation enrichment score [1, 6] turn out when B43 was run?
A: The mutation enrichment score was 1.

B44: R10W R10W (peptide)
chain: MHLEGRDGRRYPGAPAVELLWTSVPSGLAE
Q: B44 was tested. Which mutation enrichment score ([4]; paper call: no_effect) did it give?
A: The mutation enrichment score was -1.

B45: D258N D258N (peptide)
chain: KNVGESVAAALSPLGIEVDINVEHGGKRSRLTPVSPESSST
Q: For B45, which mutation enrichment score [1, 8] is on record?
A: Its mutation enrichment score is -2.1.

B46: R1945G R1945G (peptide)
chain: KRQQMRQEALMKTDRRRRRPGEEVRALEAEREAIISEKRQK
Q: For B46, which mutation enrichment score [1, 6] is on record?
A: The mutation enrichment score was 2.
